Measurements published in PubChem BioAssay AID1347165 (National Center for Advancing Translational Sciences (NCATS), 2019).
Screen size: about 220,000 compounds; about 5,700 (2.6%) were called active. Inconclusive means that the source gave no clear call. Such entries were picked first, then a sample of the others. Calls come from the whole dose curve; as a rule, active = well fitted inhibition curve with a large enough effect; inconclusive = small, poorly fitted or top-dose-only effect; inactive = no such curve, though single readings can be large or run the other way. A potency beside an inconclusive call is a rough fit, not a confirmed value.

Biological target: Lysine-specific demethylase 5B (Homo sapiens) (UniProt Q9UGL1)
Experiment: Primary screen for KDM5B Histone Demethylases FDH-coupled qHTS; note: nearly all actives have a fitted effect of over 70% in size
Conditions: FDH-coupled NADH fluorescence (FDH is formaldehyde dehydrogenase); series mostly up to 57.7 µM
How it was run: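 Inhibition is measured as reduced NADH fluorescence generation from FDH coupling to formaldehyde release. Truncated KDM5BΔAP at 200 nM final acts on H3K4me3 peptide (12.5 µM in substrate mix) in pH 7.5 HEPES buffer with Tween-20, 30 min, room temperature.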
Potency is the fitted concentration of half-maximal effect; tags give direction and shape of the fitted curve.

UniProt Q9UGL1, sequence (Q9UGL1 whole entry, looked up): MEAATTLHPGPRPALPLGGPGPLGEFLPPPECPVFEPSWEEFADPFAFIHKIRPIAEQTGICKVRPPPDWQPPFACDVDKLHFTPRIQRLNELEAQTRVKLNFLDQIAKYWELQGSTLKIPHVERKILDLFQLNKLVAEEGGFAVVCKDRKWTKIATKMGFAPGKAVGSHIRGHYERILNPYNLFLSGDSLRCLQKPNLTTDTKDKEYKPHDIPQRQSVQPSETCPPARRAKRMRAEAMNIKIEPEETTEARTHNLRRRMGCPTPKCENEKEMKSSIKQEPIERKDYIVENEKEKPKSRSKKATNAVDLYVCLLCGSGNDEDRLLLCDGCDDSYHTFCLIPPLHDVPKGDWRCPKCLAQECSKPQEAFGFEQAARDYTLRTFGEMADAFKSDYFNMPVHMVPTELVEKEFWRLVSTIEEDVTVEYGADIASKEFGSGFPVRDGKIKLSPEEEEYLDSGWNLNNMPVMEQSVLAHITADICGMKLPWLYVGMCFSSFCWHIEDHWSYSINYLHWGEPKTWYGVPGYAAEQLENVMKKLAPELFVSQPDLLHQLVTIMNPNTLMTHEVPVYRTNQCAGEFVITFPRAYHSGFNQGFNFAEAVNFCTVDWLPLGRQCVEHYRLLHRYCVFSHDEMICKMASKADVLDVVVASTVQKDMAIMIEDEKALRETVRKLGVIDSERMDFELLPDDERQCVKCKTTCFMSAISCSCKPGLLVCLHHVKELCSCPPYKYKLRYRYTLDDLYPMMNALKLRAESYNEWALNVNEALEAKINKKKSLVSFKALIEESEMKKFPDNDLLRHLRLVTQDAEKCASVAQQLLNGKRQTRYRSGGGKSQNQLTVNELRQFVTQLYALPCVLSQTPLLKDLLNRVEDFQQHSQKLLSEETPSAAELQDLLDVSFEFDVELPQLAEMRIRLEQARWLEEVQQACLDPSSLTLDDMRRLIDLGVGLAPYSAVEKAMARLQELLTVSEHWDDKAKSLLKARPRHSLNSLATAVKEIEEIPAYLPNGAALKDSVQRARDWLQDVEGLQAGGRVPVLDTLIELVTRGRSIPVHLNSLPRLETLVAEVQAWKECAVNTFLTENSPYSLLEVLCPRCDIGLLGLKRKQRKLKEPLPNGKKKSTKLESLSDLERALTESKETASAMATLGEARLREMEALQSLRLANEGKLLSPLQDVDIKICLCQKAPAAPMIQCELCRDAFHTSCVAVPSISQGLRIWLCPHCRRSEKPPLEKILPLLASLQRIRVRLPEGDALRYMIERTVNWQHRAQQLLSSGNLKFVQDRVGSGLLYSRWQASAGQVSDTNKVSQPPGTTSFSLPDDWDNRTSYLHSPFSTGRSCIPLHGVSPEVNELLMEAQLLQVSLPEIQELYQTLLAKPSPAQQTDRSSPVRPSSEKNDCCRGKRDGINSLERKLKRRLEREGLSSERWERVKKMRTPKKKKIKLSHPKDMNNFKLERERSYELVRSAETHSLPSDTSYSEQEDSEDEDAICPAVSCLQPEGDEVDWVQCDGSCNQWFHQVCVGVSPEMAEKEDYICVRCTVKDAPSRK

SMILES	Potency
C[S+](=O)([O-])c1ccc(-c2ccc3ncn(-c4ccc(F)cc4F)c(=O)c3n2)cc1	inconclusive: 44.7 µM [inhibitor, partial curve, poor fit]
Nc1ccc2oc(-c3ccc(-c4ccccc4)cc3)nc2c1	inconclusive: 39.8 µM [inhibitor, single point]
CCN(CC)CCNC(=O)CCc1c(C)nc2c(c(C)nn2-c2ccc(C)c(C)c2)c1C	inconclusive: 28.2 µM [inhibitor, partial curve, poor fit]
O=c1[nH]nc(-c2ccco2)c2c1Nc1nnnn1C2c1ccc(F)cc1 (stereo not given)	inconclusive: 28.2 µM [inhibitor, partial curve, poor fit]
CCN(CCCNC(=O)c1nn(-c2ccc(OC)c(Cl)c2)c(=O)c2c1c1ccccc1n2C)c1ccccc1	inconclusive: 1.58 µM [inhibitor, full curve, poor fit]
Nc1ccc(Cl)cc1/C(=N/Nc1ccccc1)c1ccccc1	inactive
c1ccc(CCCN2CC[C@H](c3nnc(-c4ccccc4)o3)C2)cc1	active: 31.6 µM
COc1ccc(C(=O)/C(C#N)=C\c2cc(Br)c(O)c(OC)c2)cc1	inconclusive: 20 µM [inhibitor, partial curve, poor fit]
Cc1ncc2c(c1CNC(=O)CC(C)c1ccccc1)CCNC2 (stereo not given)	inconclusive: 11.2 µM [inhibitor, partial curve]
c1ccc(CN2CCc3c(sc4c3c(N3CCOCC3)nc3nnnn34)C2)cc1	inconclusive: 17.8 µM [inhibitor, partial curve, poor fit]
O[C@@H]1C[C@@H](c2nnc3n2CCN(Cc2ccc4[nH]ccc4c2)C3)N(Cc2ccccc2)C1	inconclusive: 35.5 µM [inhibitor, single point]
Cc1ccc(-c2cc(C(=O)Nc3ccc(C#N)cc3)c3ccccc3n2)o1	inactive
CC(C)(C)C(=O)/C=c1/[nH]c(=O)/c(=C/c2ccccc2F)s1	inactive
Cc1nc(-c2ccncc2)[nH]c(=O)c1CC(=O)N(C)C1CCCC1	inconclusive: 39.8 µM [inhibitor, single point]
O=C1NC2(CCN(Cc3ccccc3)CC2)Oc2ccccc21	inactive
CC(C)C[C@@H]1N[C@H](C(=O)NC2CCCC2)Cc2cn(Cc3nccn3C)c3cccc1c23	inconclusive: 31.6 µM [inhibitor, single point]
CCn1cc(-c2cc(C(=O)O)c3ccccc3n2)c(C)n1	inconclusive: 25.1 µM [inhibitor, partial curve, poor fit]
CCc1cccc(NC(=O)N2CCc3nc4cc(-c5ccc(OC)cc5)[nH]n4c(=O)c3C2)c1	inconclusive: 22.4 µM [inhibitor, partial curve, poor fit]
Nc1c(C(=O)c2ccccc2)sc2nsc(SCCN3CCCC3)c12	inconclusive: 39.8 µM [inhibitor, single point]
O=C(Cc1cccc(F)c1)N1CCC(n2cc(-c3nc(-c4ccccc4)no3)nn2)CC1	inconclusive: 15.8 µM [inhibitor, single point]

SMILES	Potency
CC(=O)Nc1ccc(S(=O)(=O)N[C@H]2CO[C@H]3[C@@H]2OC[C@@H]3n2nnnc2Oc2ccc(-n3cncn3)cc2)cc1	inactive
Cc1oc(-c2cccs2)nc1CC(=O)Nc1ccc(F)c(F)c1F	inconclusive: 22.4 µM [inhibitor, partial curve, poor fit]
CCN1c2cc(C(=O)Nc3ccc(OC)c(OC)c3)ccc2C(=O)N2CCCCC21 (stereo not given)	inconclusive: 22.4 µM [inhibitor, single point]
CCOC(=O)c1c(NC(=O)c2ccc(S(=O)(=O)N(CC)CC)cc2)sc2c1CCCCC2	inconclusive: 0.794 µM [inhibitor, full curve, poor fit]
Cc1ccccc1N1CCN(C2CCCN(C(=O)CCC3(C)CC3)C2)CC1 (stereo not given)	inactive
Cc1cc(S(=O)(=O)Nc2ccc(O)c(Sc3nc4ccccc4s3)c2)ccc1Cl	inconclusive: 31.6 µM [inhibitor, single point]
COc1ccc(OC)c(NC(=O)c2ccc(-n3cccn3)cc2)c1	inconclusive: 39.8 µM [inhibitor, single point]
COC(=O)c1cc(OC)c(OC)cc1NC(=O)CSCc1c(C)noc1C	inconclusive: 28.2 µM [inhibitor, single point]
N#Cc1cccnc1N1CCN(C(C(=O)O)c2c[nH]c3ccc(Cl)cc23)CC1 (stereo not given)	inconclusive: 35.5 µM [inhibitor, partial curve, poor fit]
Cn1nc(-c2nncn2CC2CC2)c2c1CCN(C(=O)c1ccncc1)C2	inconclusive: 35.5 µM [inhibitor, partial curve, poor fit]
O=C(NCCn1ccn2nc(-c3ccc(F)cc3)cc2c1=O)c1cc(Cl)ccc1F	inconclusive: 25.1 µM [inhibitor, single point]
CCN(CC)c1ccc(NS(=O)(=O)c2cc(-c3cc(C)no3)ccc2C)c(C)c1	inconclusive: 5.01 µM [inhibitor, partial curve, poor fit]
COC(=O)C(=Nc1ccccc1)/C(C(=O)C(=O)N(C)c1ccccc1)=C(\O)c1ccccc1	inconclusive: 22.4 µM [inhibitor, single point]
CCc1ccc2c(Cn3cc(S(=O)(=O)N(C)C)ccc3=O)cc(=O)oc2c1	inactive
Cc1ccc2oc(C(=O)NC3CCS(=O)(=O)C3)cc(=O)c2c1 (stereo not given)	inactive
COc1cccc(C(=O)N2CCC3(CC2)CN(c2ccncn2)CC3CO)c1C (stereo not given)	inactive
Cc1ccc(S(=O)(=O)N2CCC(n3c(C)nc4cccnc43)CC2)cc1	inactive
Cc1nonc1OC(C)CNCCNc1ccc([N+](=O)[O-])cc1 (stereo not given)	inconclusive: 39.8 µM [inhibitor, single point]
N#Cc1cccc(CN[C@H]2[C@H](O)[C@H](O)C[C@@H]2c2ccc(N3CCOCC3)nc2)c1	inconclusive: 39.8 µM [inhibitor, partial curve, poor fit]
CCC(CO)Nc1cccc2c1S(=O)(=O)N(Cc1cn(Cc3ccc(F)cc3)nn1)Cc1ccccc1O2 (stereo not given)	inconclusive: 28.2 µM [inhibitor, single point]
